# According to the supplement of paper PMC12645437, “Orthogonal IMiD-Degron Pairs Induce Selective Protein Degradation in Cells” (ACS Chemical Biology, 2025):
# The list shows a part of the results.
# B1: Q9UKT9 (peptide)
# chain: FWCPQCGANFTQKGNLLRHIKL
# B2: Q9UKT9 (peptide)
# chain: LICNQCGFVCTQKGNLLRHIKL
# B3: Q9UKT9 (peptide)
# chain: FECEICGHKFTQKGNLLRHIKL
# B4: Q9UKT9 (peptide)
# chain: FQCNQCGHVFTQKGNLLRHIKL
# B5: Q9UKT9 (peptide)
# chain: FGCSVCGHGFTQKGNLLRHIKL
# B6: Q9UKT9 (peptide)
# chain: FICPVCGAQFTQKGNLLRHIKL
# B7: Q9UKT9 (peptide)
# chain: FYCEQCGATFTQKGNLLRHIKL
# B8: Q9UKT9 (peptide)
# chain: FGCEICGHRFTQKGNLLRHIKL
# B9: Q9UKT9 (peptide)
# chain: FHCNQCGRQFTQKGNLLRHIKL
# B10: Q9UKT9 (peptide)
# chain: FSCEQCGAHFTQKGNLLRHIKL
# B11: Q9UKT9 (peptide)
# chain: LYCNQCGFQCTQKGNLLRHIKL
# B12: Q9UKT9 (peptide)
# chain: FGCNVCGALFTQKGNLLRHIKL
# B13: Q9UKT9 (peptide)
# chain: FQCNVCGATFTQKGNLLRHIKL
# B14: Q9UKT9 (peptide)
# chain: FWCEQCGAMFTQKGNLLRHIKL
# B15: Q9UKT9 (peptide)
# chain: FYCDICGAIFTQKGNLLRHIKL
# B16: Q9UKT9 (peptide)
# chain: FRCDVCGAYFTQKGNLLRHIKL
# B17: Q9UKT9 (peptide)
# chain: FLCNQCGRCFTQKGNLLRHIKL
# B18: Q9UKT9 (peptide)
# chain: FTCEICGHAFTQKGNLLRHIKL
# B19: Q9UKT9 (peptide)
# chain: FYCDQCGATFTQKGNLLRHIKL
# B20: Q9UKT9 (peptide)
# chain: FCCPQCGAPFTQKGNLLRHIKL
# B21: Q9UKT9 (peptide)
# chain: FCCNICGANFTQKGNLLRHIKL
# B22: Q9UKT9 (peptide)
# chain: FICNICGAHFTQKGNLLRHIKL
# B23: Q9UKT9 (peptide)
# chain: FLCNQCGRHFTQKGNLLRHIKL
# B24: Q9UKT9 (peptide)
# chain: FECPICGRMFTQKGNLLRHIKL
# B25: Q9UKT9 (peptide)
# chain: FTCPICGRSFTQKGNLLRHIKL
# B26: Q9UKT9 (peptide)
# chain: FFCDICGAAFTQKGNLLRHIKL
# B27: Q9UKT9 (peptide)
# chain: FECEICGRFFTQKGNLLRHIKL
# B28: Q9UKT9 (peptide)
# chain: FECEICGHRFTQKGNLLRHIKL
# B29: Q9UKT9 (peptide)
# chain: FHCNVCGAMFTQKGNLLRHIKL
# B30: Q9UKT9 (peptide)
# chain: LCCEICGFFCTQKGNLLRHIKL
# B31: Q9UKT9 (peptide)
# chain: FWCNQCGAQFTQKGNLLRHIKL
# B32: Q9UKT9 (peptide)
# chain: FLCDICGAGFTQKGNLLRHIKL
# B33: Q9UKT9 (peptide)
# chain: FLCEQCGAFFTQKGNLLRHIKL
# B34: Q9UKT9 (peptide)
# chain: FFCEICGRMFTQKGNLLRHIKL
# B35: Q9UKT9 (peptide)
# chain: FNCPICGADFTQKGNLLRHIKL
# B36: Q9UKT9 (peptide)
# chain: FSCDICGADFTQKGNLLRHIKL
# B37: Q9UKT9 (peptide)
# chain: FCCEICGRHFTQKGNLLRHIKL
# B38: Q9UKT9 (peptide)
# chain: FYCPQCGAPFTQKGNLLRHIKL
# B39: Q9UKT9 (peptide)
# chain: FQCEVCGAHFTQKGNLLRHIKL
# B40: Q9UKT9 (peptide)
# chain: FRCEICGHCFTQKGNLLRHIKL
# B41: Q9UKT9 (peptide)
# chain: FRCPICGAMFTQKGNLLRHIKL
# B42: Q9UKT9 (peptide)
# chain: FNCNQCGRPFTQKGNLLRHIKL
# B43: Q9UKT9 (peptide)
# chain: FYCPICGHFFTQKGNLLRHIKL
# B44: Q9UKT9 (peptide)
# chain: FQCPICGAPFTQKGNLLRHIKL
# B45: Q9UKT9 (peptide)
# chain: FGCPICGHPFTQKGNLLRHIKL
# B46: Q9UKT9 (peptide)
# chain: FWCNQCGRYFTQKGNLLRHIKL
# B47: Q9UKT9 (peptide)
# chain: FCCPICGAKFTQKGNLLRHIKL
# B48: Q9UKT9 (peptide)
# chain: FNCDVCGAVFTQKGNLLRHIKL
# B49: Q9UKT9 (peptide)
# chain: FACNQCGHGFTQKGNLLRHIKL
# B50: Q9UKT9 (peptide)
# chain: FTCDQCGAFFTQKGNLLRHIKL
# Biological target: no compound (DMSO)
# Test: log2 fold change of degron read counts, EGFP-low vs EGFP+ sorted cells; higher = lower degron-EGFP level without compound (poor expression or instability)
# Settings: compound: DMSO control; 18 h
# 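Also: jurkat cells carrying a lentiviral library of mutant zinc finger degrons fused to EGFP plus mCherry, mCherry+ cells FACS sorted, degron abundance counted by next-generation sequencing.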
row,Sequence,log2 fold change of degron read counts
1,B1,0.298
2,B2,0.794
3,B3,-3.31
4,B4,-0.583
5,B5,0.655
6,B6,-0.213
7,B7,-1.75
8,B8,-1.41
9,B9,-0.721
10,B10,-1.65
11,B11,0.384
12,B12,0.59
13,B13,-0.683
14,B14,-0.175
15,B15,-0.547
16,B16,-0.32
17,B17,0.328
18,B18,-1.34
19,B19,-2.22
20,B20,-1.28
21,B21,-2.1
22,B22,-0.573
23,B23,0.0803
24,B24,0.0595
25,B25,-0.12

row,Sequence,log2 fold change of degron read counts
1,B26,-0.578
2,B27,-2.68
3,B28,-2.52
4,B29,-0.945
5,B30,1.28
6,B31,-0.0268
7,B32,-1.39
8,B33,-0.148
9,B34,0.29
10,B35,-0.376
11,B36,-1.85
12,B37,-0.978
13,B38,-0.426
14,B39,-1.67
15,B40,-1.3
16,B41,0.559
17,B42,0.241
18,B43,0.886
19,B44,0.319
20,B45,0.644
21,B46,1.78
22,B47,-0.585
23,B48,-1.19
24,B49,0.173
25,B50,-1
